Laboratory results reported in PubChem BioAssay AID504832 (National Center for Advancing Translational Sciences (NCATS), 2011).
About 18,000 (5.8%) of roughly 310,000 compounds were called active. Inconclusive results, whose numbers are uncertain, are shown with a selection of clear calls. Calls follow the shape of the dose curve; as a rule, active = well fitted inhibition curve with a large enough effect; inconclusive = small, poorly fitted or top-dose-only effect, or another doubt; inactive = no such curve, though single readings can be large or run the other way. No potency is given beside an inconclusive call; the fits are too rough.

assay: Primary qHTS for delayed death inhibitors of the malarial parasite plastid, 48 hour incubation; settings: P. falciparum luciferase growth in erythrocytes; series mostly up to 28.7 µM
Summary of the method: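 Compounds are pin-transferred into medium, infected erythrocytes (2% hematocrit, 0.1% parasitemia final) are added, and plates sit one parasite generation at 37 C in 5% CO2. Detection reagent is then added and luminescence measured.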
Potency is read from the fitted curve at half-maximal effect; tags tell the direction and shape of the fitted curve.

Compound | Potency
Fc1ccc(Nc2nc(N3CCOCC3)c3ccccc3n2)cc1 | inconclusive [inhibitor, partial curve, poor fit]
COc1cc2c(cc1OC)C1O[C@](c3ccsc3)(C2)OC2=C1C(=O)CC(C)(C)C2 | inconclusive [inhibitor, single point]
Cc1ccc(NC(=O)c2cc([N+](=O)[O-])ccc2N2CCCC2)cc1 | inconclusive [inhibitor, single point]
Cc1ccccc1N1C(=O)C(Oc2ccc(Cl)cc2)C1CNCC1CCCO1 (stereo unspecified) | inconclusive [inhibitor, single point]
O=C(Nc1ccc(Oc2ccccc2)cc1)C1CCN(c2ncccn2)CC1 | inactive
Cc1ccccc1NC(=O)CC1SCCNC1=O (stereo unspecified) | inactive
CCOc1ccc(N2C(=O)S/C(=C\c3ccc(O)c(OCC)c3)C2=O)cc1 | inconclusive [inhibitor, partial curve]
Cc1cccc(-n2c(SCc3cc(=O)n4c(C)cccc4n3)nc3[nH]ncc3c2=O)c1 | inconclusive [inhibitor, full curve, poor fit]
CN(C)c1ccc(/C=N\NC(=S)SCN2C(=O)C3CCC(C)(C2=O)C3(C)C)cc1 (stereo unspecified) | inconclusive [inhibitor, single point]
C=CCN1CCN(C(CCC)c2nnnn2Cc2ccco2)CC1 (stereo unspecified) | inactive
CCCN(c1ccccc1F)S(=O)(=O)c1c[nH]c(C(=O)OC)c1 | inactive
O=C1CCCC2=C1C(c1cccs1)n1nc(SCc3ccccc3)nc1N2 (stereo unspecified) | inconclusive [inhibitor, partial curve]
Oc1ccccc1/C=N/n1c2ccccc2c2ccccc21 | inconclusive [inhibitor, full curve, poor fit]
O=C(c1cccc(S(=O)(=O)Nc2ccccc2F)c1)N1CCN(c2ccccc2F)CC1 | inactive
Cc1ccc(NC(=O)C2CCN(S(C)(=O)=O)CC2)cc1Cl | inactive
Cc1cc(C)n(C(=O)/C(C#N)=N/Nc2cc(Cl)cc(Cl)c2)n1 | active: 11.7 µM
CC1CCCC(C)N1C(=O)CSc1nnc(-c2ccco2)n1C (stereo unspecified) | inactive
CCOC(=O)c1c(NC(=O)C2CC2)sc2c1CC(C)(C)OC2 | active: 11.7 µM
CC(=O)C(=Nc1ccccc1Cl)NNc1ccc(Cl)cc1 | active: 11.7 µM
Cc1ccc2c(C)c(C(=O)Nc3cccnc3)oc2c1 | inactive
Cc1cccc(OCc2ccc(C(=O)Nc3ccc(F)cc3)cc2)c1 | inconclusive [inhibitor, single point]
CSc1ccc(Cl)c(C(=O)N2CCOc3ccccc32)c1 | inactive
COc1ccc(Cl)cc1N(CC(=O)Nc1ccccc1C(=O)N1CCOCC1)S(C)(=O)=O | inactive
c1ccc(-c2nccc(-c3ccc(-n4cnc5ccccc54)cc3)n2)nc1 | inconclusive [inhibitor, single point]

Compound | Potency
C/C(N)=C(/C#N)C(=O)CSc1nnc(SCc2ccc(Cl)cc2)s1 | inactive
c1ccc(C2(Cn3ccc4ccccc43)OCCO2)cc1 | active: 13.1 µM
CCCCn1c(=O)[nH]c(=O)c2c1nc(-c1cc3c(cc1Br)OCO3)n2C | inconclusive [inhibitor, partial curve, poor fit]
CCOc1cc(N2CCOCC2)c(OCC)cc1NC(=O)C1CC(=O)N(c2ccc(C)cc2)C1 (stereo unspecified) | inconclusive [inhibitor, partial curve, poor fit]
CCOc1ccccc1NC(=O)NC1CCCc2ccccc21 (stereo unspecified) | inactive
O=C1Nc2ccccc2Oc2cc([N+](=O)[O-])ccc21 | inactive
CN1C(=O)Cc2cc(S(=O)(=O)Nc3ccc(Cl)cc3)ccc21 | inactive
O=C1N(Cc2cccc(Cl)c2)C[C@@H]2C[C@@H](c3ccccn3)N3CCC[C@@]123 | inconclusive [inhibitor, single point]
O=C(Nc1ccc2c(c1)OCCO2)c1cc(-c2ccccn2)nc2ccc(Br)cc12 | inactive
COc1ccc(-c2csc(NC(=O)c3cc(-c4cccs4)nc4ccccc34)n2)c(OC)c1 | inconclusive [inhibitor, single point]
CC1CCCCC1NC(=O)/C(C#N)=C/c1ccccc1F (stereo unspecified) | inconclusive [inhibitor, partial curve]
CCCCn1c(N)c(N(Cc2ccccc2OC)C(=O)C(C)Oc2ccc(Cl)cc2)c(=O)[nH]c1=O (stereo unspecified) | inconclusive [inhibitor, single point]
COc1cc(/C=C/C(=O)OC(C)C(=O)Nc2c(C)n(C)n(-c3ccccc3)c2=O)ccc1OCC#N (stereo unspecified) | inactive
CCc1c(C(=O)NNC(=S)NCCc2ccccc2)csc1C | inactive
CCC(C)c1ccc(NC(=O)N2CCN(C(=O)C3CCCO3)CC2)cc1 (stereo unspecified) | inactive
Cc1cc(C)n(CC(O)Cn2c3ccccc3c3ccccc32)n1 (stereo unspecified) | active: 10.4 µM
O=C(NCC(=O)N(Cc1ccc(F)cc1)C(C(=O)NC1CCCC1)c1ccco1)c1ccco1 (stereo unspecified) | inactive
COc1ccc(-c2cc3nc4n(c(=O)c3s2)CCCCC4)cc1 | inactive
C/C(CCC(=O)OC[C@H]1O[C@H](C#Cc2ccccc2)C=C[C@@H]1Oc1ccc(C)cc1)=N\OC[C@@H](O)[C@H]1O[C@@H]2OC(C)(C)O[C@@H]2[C@H]1O | inconclusive [inhibitor, partial curve]
COc1ccc(C)cc1Nc1nc(N)c2ccccc2n1 | inconclusive [inhibitor, single point]
O=C(NC(=S)NCCCN1CCOCC1)c1cccc2ccccc12 | inconclusive [inhibitor, single point]
COc1cccc(OCc2cc(C(=O)N3CCNC(=O)C3Cc3ccccc3)no2)c1 (stereo unspecified) | inconclusive [inhibitor, partial curve]
CC(C)NC(=O)CSc1ccccc1C(=O)NNC(=O)Cn1ccc(C(F)(F)F)n1 | inactive
COc1ccccc1NC(=O)CSc1nc2ccccc2nc1N1CC(C)OC(C)C1 (stereo unspecified) | inconclusive [inhibitor, partial curve]

Compound | Potency
CCn1cc(C(=O)O)c(=O)c2cnc(N3CCN(C(=S)Nc4ccc(F)cc4)CC3)nc21 | inconclusive [inhibitor, partial curve]
CCOC(=O)c1c(C)[nH]c(C(=O)N/N=C/c2ccc(OC)c(OC)c2)c1C | inconclusive [inhibitor, single point]
Cc1cc(NC(=O)CCC(=O)N(CC(=O)NC2CCCC2)c2ccc(Cl)c(Cl)c2)no1 | inconclusive [inhibitor, single point]
COC(=O)c1ccccc1NC(=O)CSc1nnc(-c2ccc(OC)cc2)n1C | inconclusive [inhibitor, single point]
NC(=O)CCCn1c(C(=O)c2ccc(Cl)cc2)c2ccc([N+](=O)[O-])cc2[n+]1[O-] | inconclusive [inhibitor, single point]
CCOC(=O)Cc1csc(NC(=O)c2ccc([N+](=O)[O-])cc2[N+](=O)[O-])n1 | inactive
Cc1cc2nc3c(nc2cc1C)C1(C(=O)N(C)C)CCC3(C)C1(C)C (stereo unspecified) | inconclusive [inhibitor, single point]
COc1ccc(-c2cc(C(=O)N3CCN(C(=O)c4ccccc4F)CC3)[nH]n2)cc1 | inconclusive [inhibitor, single point]
O=C(N/N=C/c1ccc(Br)s1)c1ccncc1 | inconclusive [inhibitor, single point]
CCC1Nc2ncnc(N3CCCCC3)c2N(Cc2ccccc2)C1=O (stereo unspecified) | inconclusive [inhibitor, single point]
O=C(c1ccc(F)cc1)c1ccc(N2CCCC2)cc1 | inconclusive [inhibitor, partial curve]
O=S(=O)(NCCC1=CCCCC1)c1ccccc1Br | inconclusive [inhibitor, single point]
CCOc1ccc(NC(=O)N2CCC(C(N)=O)(N3CCCCC3)CC2)cc1 | inactive
COC(=O)c1cc(-c2ccc(S(=O)(=O)N3CCCC(C)C3)cc2)c(C(F)(F)F)s1 (stereo unspecified) | inconclusive [inhibitor, single point]
COCCCNC(=S)N/N=C/c1ccccc1O | inconclusive [inhibitor, full curve, poor fit]
Cc1cc(NC(=O)CSc2nc(-c3ccccc3Cl)nc3c2c(=O)n(C)c(=O)n3C)no1 | inactive
O=[N+]([O-])c1cc(C(F)(F)F)ccc1N1CCN(S(=O)(=O)c2ccc3ccccc3c2)CC1 | inconclusive [inhibitor, partial curve, poor fit]
O=C(N/N=C\c1c(O)ccc2ccccc12)c1ccc(Cn2cccn2)o1 | inconclusive [inhibitor, single point]
O=C(Nc1ccc(Cl)cc1)C1CCCN(c2ncnc3c2nc2n3CCCCC2)C1 (stereo unspecified) | inconclusive [inhibitor, single point]
CCN(CC)c1nc2c3c(nc4c(c3c1C#N)CC(=O)N4c1ccc(Cl)cc1)NC(C)=N2 | active: 16.5 µM
CC(Oc1ccc(Br)cc1)C(=O)NCC1(N2CCCCC2)CCCCC1 (stereo unspecified) | inconclusive [inhibitor, single point]
Nc1nc(SCC(=O)NCCCN2CCOCC2)nc2sc3c(c12)CCC3 | inactive
O=C(NCCCN1CCN(c2cccc(Cl)c2)CC1)C1CCC(=O)N1Cc1ccccc1Cl (stereo unspecified) | inconclusive [inhibitor, partial curve, poor fit]
